Results as given in patent US20240392031A1 (BICARA THERAPEUTICS, published 2024).
Substitutions are numbered along the chain they refer to. In names and notes the source's numbering stands.

B1: BCA376, anti-hCAIX hIL-12 fusion protein (hIL-12p40 F82A, K217A) (other)
heavy 1: EVRLVESGGGLVKPGGSLRLSCAASGFTFSNYYMSWIRQAPEKRLELVSAINSDGGITYYLDTVKGRFTISRDNAKNSLYLQMNSLRAEDTALFYCARHRSGYFSMDYWGQGTSVTVSS[human IgG1 constant region with changes left out here]GGGGSGGGGSGGGGSIWELKKDVYVVELDWYPDAPGEMVVLTCDTPEEDGITWTLDQSSEVLGSGKTLTIQVKEAGDAGQYTCHKGGEVLSHSLLLLHKKEDGIWSTDILKDQKEPKNKTFLRCEAKNYSGRFTCWWLTTISTDLTFSVKSSRGSSDPQGVTCGAATLSAERVRGDNKEYEYSVECQEDSACPAAEESLPIEVMVDAVHALKYENYTSSFFIRDIIKPDPPKNLQLKPLKNSRQVEVSWEYPDTWSTPHSYFSLTFCVQVQGKSKREKKDRVFTDKTSATVICRKNASISVRAQDRYYSSSWSEWASVPCS
heavy 2: EVRLVESGGGLVKPGGSLRLSCAASGFTFSNYYMSWIRQAPEKRLELVSAINSDGGITYYLDTVKGRFTISRDNAKNSLYLQMNSLRAEDTALFYCARHRSGYFSMDYWGQGTSVTVSSASTKGPSVFPLAPSSKSTSGGTAALGCLVKDYFPEPVTVSWNSGALTSGVHTFPAVLQSSGLYSLSSVVTVPSSSLGTQTYICNVNHKPSNTKVDKKV[human IgG1 Fc with changes left out here]GGGGSGGGGSGGGGSRNLPVATPDPGMFPCLHHSQNLLRAVSNMLQKARQTLEFYPCTSEEIDHEDITKDKTSTVEACLPLELTKNESCLNSRETSFITNGSCLASRKTSFMMALCLSSIYEDLKMYQVEFKTMNAKLLMDPKRQIFLDQNMLAVIDELMQALNFNSETVPQKSSLEEPDFYKTKIKLCILLHAFRIRAVTIDRVMSYLNAS
light: EIVMTQSPATLSVSPGERATLSCKASQNVVSAVAWYQQKPGQSPRLLIYSASNRYTGIPARFSGSGSGTEFTLTISSLQSEDFAAYYCQQYRNYPWTFGGGTKVEIKRTVAAPSVFIFPPSDEQLKSGTASVVCLLNNFYPREAKVQWKVDNALQSGNSQESVTEQDSKDSTYSLSSTLTLSKADYEKHKVYACEVTHQGLSSPVTKSFNRGEC
B2: BCA375, anti-hCAIX hIL-12 fusion protein (hIL-12p40 W37A, K219A) (other)
heavy 1: EVRLVESGGGLVKPGGSLRLSCAASGFTFSNYYMSWIRQAPEKRLELVSAINSDGGITYYLDTVKGRFTISRDNAKNSLYLQMNSLRAEDTALFYCARHRSGYFSMDYWGQGTSVTVSS[human IgG1 constant region with changes left out here]GGGGSGGGGSGGGGSIWELKKDVYVVELDAYPDAPGEMVVLTCDTPEEDGITWTLDQSSEVLGSGKTLTIQVKEFGDAGQYTCHKGGEVLSHSLLLLHKKEDGIWSTDILKDQKEPKNKTFLRCEAKNYSGRFTCWWLTTISTDLTFSVKSSRGSSDPQGVTCGAATLSAERVRGDNKEYEYSVECQEDSACPAAEESLPIEVMVDAVHKLAYENYTSSFFIRDIIKPDPPKNLQLKPLKNSRQVEVSWEYPDTWSTPHSYFSLTFCVQVQGKSKREKKDRVFTDKTSATVICRKNASISVRAQDRYYSSSWSEWASVPCS
heavy 2: EVRLVESGGGLVKPGGSLRLSCAASGFTFSNYYMSWIRQAPEKRLELVSAINSDGGITYYLDTVKGRFTISRDNAKNSLYLQMNSLRAEDTALFYCARHRSGYFSMDYWGQGTSVTVSSASTKGPSVFPLAPSSKSTSGGTAALGCLVKDYFPEPVTVSWNSGALTSGVHTFPAVLQSSGLYSLSSVVTVPSSSLGTQTYICNVNHKPSNTKVDKKV[human IgG1 Fc with changes left out here]GGGGSGGGGSGGGGSRNLPVATPDPGMFPCLHHSQNLLRAVSNMLQKARQTLEFYPCTSEEIDHEDITKDKTSTVEACLPLELTKNESCLNSRETSFITNGSCLASRKTSFMMALCLSSIYEDLKMYQVEFKTMNAKLLMDPKRQIFLDQNMLAVIDELMQALNFNSETVPQKSSLEEPDFYKTKIKLCILLHAFRIRAVTIDRVMSYLNAS
light: B1 light
B3: BCA323.16, anti-hCAIX hIL-12 fusion protein (hIL-12p35 variant C: F188A/Y189A) (other)
heavy 1: EVRLVESGGGLVKPGGSLRLSCAASGFTFSNYYMSWIRQAPEKRLELVSAINSDGGITYYLDTVKGRFTISRDNAKNSLYLQMNSLRAEDTALFYCARHRSGYFSMDYWGQGTSVTVSS[human IgG1 constant region with changes left out here]GGGGSGGGGSGGGGSIWELKKDVYVVELDWYPDAPGEMVVLTCDTPEEDGITWTLDQSSEVLGSGKTLTIQVKEFGDAGQYTCHKGGEVLSHSLLLLHKKEDGIWSTDILKDQKEPKNKTFLRCEAKNYSGRFTCWWLTTISTDLTFSVKSSRGSSDPQGVTCGAATLSAERVRGDNKEYEYSVECQEDSACPAAEESLPIEVMVDAVHKLKYENYTSSFFIRDIIKPDPPKNLQLKPLKNSRQVEVSWEYPDTWSTPHSYFSLTFCVQVQGKSKREKKDRVFTDKTSATVICRKNASISVRAQDRYYSSSWSEWASVPCS
heavy 2: EVRLVESGGGLVKPGGSLRLSCAASGFTFSNYYMSWIRQAPEKRLELVSAINSDGGITYYLDTVKGRFTISRDNAKNSLYLQMNSLRAEDTALFYCARHRSGYFSMDYWGQGTSVTVSSASTKGPSVFPLAPSSKSTSGGTAALGCLVKDYFPEPVTVSWNSGALTSGVHTFPAVLQSSGLYSLSSVVTVPSSSLGTQTYICNVNHKPSNTKVDKKV[human IgG1 Fc with changes left out here]GGGGSGGGGSGGGGSRNLPVATPDPGMFPCLHHSQNLLRAVSNMLQKARQTLEFYPCTSEEIDHEDITKDKTSTVEACLPLELTKNESCLNSRETSFITNGSCLASRKTSFMMALCLSSIYEDLKMYQVEFKTMNAKLLMDPKRQIFLDQNMLAVIDELMQALNFNSETVPQKSSLEEPDAAKTKIKLCILLHAFRIRAVTIDRVMSYLNAS
light: B1 light with R92S
B4: BCA324.16, anti-hCAIX hIL-12 fusion protein (hIL-12p35 variant D: F188A) (other)
heavy 1: EVRLVESGGGLVKPGGSLRLSCAASGFTFSNYYMSWIRQAPEKRLELVSAINSDGGITYYLDTVKGRFTISRDNAKNSLYLQMNSLRAEDTALFYCARHRSGYFSMDYWGQGTSVTVSS[human IgG1 constant region with changes left out here]GGGGSGGGGSGGGGSIWELKKDVYVVELDWYPDAPGEMVVLTCDTPEEDGITWTLDQSSEVLGSGKTLTIQVKEFGDAGQYTCHKGGEVLSHSLLLLHKKEDGIWSTDILKDQKEPKNKTFLRCEAKNYSGRFTCWWLTTISTDLTFSVKSSRGSSDPQGVTCGAATLSAERVRGDNKEYEYSVECQEDSACPAAEESLPIEVMVDAVHKLKYENYTSSFFIRDIIKPDPPKNLQLKPLKNSRQVEVSWEYPDTWSTPHSYFSLTFCVQVQGKSKREKKDRVFTDKTSATVICRKNASISVRAQDRYYSSSWSEWASVPCS
heavy 2: EVRLVESGGGLVKPGGSLRLSCAASGFTFSNYYMSWIRQAPEKRLELVSAINSDGGITYYLDTVKGRFTISRDNAKNSLYLQMNSLRAEDTALFYCARHRSGYFSMDYWGQGTSVTVSSASTKGPSVFPLAPSSKSTSGGTAALGCLVKDYFPEPVTVSWNSGALTSGVHTFPAVLQSSGLYSLSSVVTVPSSSLGTQTYICNVNHKPSNTKVDKKV[human IgG1 Fc with changes left out here]GGGGSGGGGSGGGGSRNLPVATPDPGMFPCLHHSQNLLRAVSNMLQKARQTLEFYPCTSEEIDHEDITKDKTSTVEACLPLELTKNESCLNSRETSFITNGSCLASRKTSFMMALCLSSIYEDLKMYQVEFKTMNAKLLMDPKRQIFLDQNMLAVIDELMQALNFNSETVPQKSSLEEPDAYKTKIKLCILLHAFRIRAVTIDRVMSYLNAS
light: B1 light with R92S
B5: BCA308.16, anti-hCAIX hIL-12 fusion protein (hIL-12p35 variant B: E60K/F61H/P63S/K150H/F188P) (other)
heavy 1: EVRLVESGGGLVKPGGSLRLSCAASGFTFSNYYMSWIRQAPEKRLELVSAINSDGGITYYLDTVKGRFTISRDNAKNSLYLQMNSLRAEDTALFYCARHRSGYFSMDYWGQGTSVTVSS[human IgG1 constant region with changes left out here]GGGGSGGGGSGGGGSIWELKKDVYVVELDWYPDAPGEMVVLTCDTPEEDGITWTLDQSSEVLGSGKTLTIQVKEFGDAGQYTCHKGGEVLSHSLLLLHKKEDGIWSTDILKDQKEPKNKTFLRCEAKNYSGRFTCWWLTTISTDLTFSVKSSRGSSDPQGVTCGAATLSAERVRGDNKEYEYSVECQEDSACPAAEESLPIEVMVDAVHKLKYENYTSSFFIRDIIKPDPPKNLQLKPLKNSRQVEVSWEYPDTWSTPHSYFSLTFCVQVQGKSKREKKDRVFTDKTSATVICRKNASISVRAQDRYYSSSWSEWASVPCS
heavy 2: EVRLVESGGGLVKPGGSLRLSCAASGFTFSNYYMSWIRQAPEKRLELVSAINSDGGITYYLDTVKGRFTISRDNAKNSLYLQMNSLRAEDTALFYCARHRSGYFSMDYWGQGTSVTVSSASTKGPSVFPLAPSSKSTSGGTAALGCLVKDYFPEPVTVSWNSGALTSGVHTFPAVLQSSGLYSLSSVVTVPSSSLGTQTYICNVNHKPSNTKVDKKV[human IgG1 Fc with changes left out here]GGGGSGGGGSGGGGSRNLPVATPDPGMFPCLHHSQNLLRAVSNMLQKARQTLKHYSCTSEEIDHEDITKDKTSTVEACLPLELTKNESCLNSRETSFITNGSCLASRKTSFMMALCLSSIYEDLKMYQVEFKTMNAKLLMDPHRQIFLDQNMLAVIDELMQALNFNSETVPQKSSLEEPDPYKTKIKLCILLHAFRIRAVTIDRVMSYLNAS
light: B1 light with R92S
B6: BCA325.16, anti-hCAIX hIL-12 fusion protein (hIL-12p35 variant E: Y189A) (other)
heavy 1: EVRLVESGGGLVKPGGSLRLSCAASGFTFSNYYMSWIRQAPEKRLELVSAINSDGGITYYLDTVKGRFTISRDNAKNSLYLQMNSLRAEDTALFYCARHRSGYFSMDYWGQGTSVTVSS[human IgG1 constant region with changes left out here]GGGGSGGGGSGGGGSIWELKKDVYVVELDWYPDAPGEMVVLTCDTPEEDGITWTLDQSSEVLGSGKTLTIQVKEFGDAGQYTCHKGGEVLSHSLLLLHKKEDGIWSTDILKDQKEPKNKTFLRCEAKNYSGRFTCWWLTTISTDLTFSVKSSRGSSDPQGVTCGAATLSAERVRGDNKEYEYSVECQEDSACPAAEESLPIEVMVDAVHKLKYENYTSSFFIRDIIKPDPPKNLQLKPLKNSRQVEVSWEYPDTWSTPHSYFSLTFCVQVQGKSKREKKDRVFTDKTSATVICRKNASISVRAQDRYYSSSWSEWASVPCS
heavy 2: EVRLVESGGGLVKPGGSLRLSCAASGFTFSNYYMSWIRQAPEKRLELVSAINSDGGITYYLDTVKGRFTISRDNAKNSLYLQMNSLRAEDTALFYCARHRSGYFSMDYWGQGTSVTVSSASTKGPSVFPLAPSSKSTSGGTAALGCLVKDYFPEPVTVSWNSGALTSGVHTFPAVLQSSGLYSLSSVVTVPSSSLGTQTYICNVNHKPSNTKVDKKV[human IgG1 Fc with changes left out here]GGGGSGGGGSGGGGSRNLPVATPDPGMFPCLHHSQNLLRAVSNMLQKARQTLEFYPCTSEEIDHEDITKDKTSTVEACLPLELTKNESCLNSRETSFITNGSCLASRKTSFMMALCLSSIYEDLKMYQVEFKTMNAKLLMDPKRQIFLDQNMLAVIDELMQALNFNSETVPQKSSLEEPDFAKTKIKLCILLHAFRIRAVTIDRVMSYLNAS
light: B1 light with R92S

These binders were tested against T1, human IL-12 receptor (hIL-12R), heterodimer of hIL-12Rβ1 and hIL-12Rβ2 (human, UniProt P42701 24-662; Q99665 24-862) (assay: cell-based or functional assay).

| Fold Attenuation (Over Fc-IL-12 Control); HEK-Blue IL-12 reporter assay [fold] | Binder |
| --- | --- |
| 214 | B1 |
| 319 | B2 |

Biological target: T1, human IL-12 receptor (hIL-12R), …
Experiment: cell-based or functional assay
Remark: another data set of the same source

| HEK-IL12 reporter assay Attenuation (summary table) [fold] | Binder |
| --- | --- |
| 214 | B1 |
| 319 | B2 |

Biological target: T1, human IL-12 receptor (hIL-12R), …
Experiment: cell-based or functional assay
Remark: another data set of the same source

| Fold Attenuation (Over Fc-IL-12 Control); HEK-Blue IL-12 reporter assay [fold] | Binder |
| --- | --- |
| 15.4 | B3 |
| 1 | B4 |
| 1.4 | B5 |
| 4.5 | B6 |
